Data as given in the supplement of paper PMC4996465.
Structures can show the parent of a compound that is named as a salt. Viability of KB3-1 and Nalm-6 cells after 48 h of drug alone (CellTiter-Glo), 11 doses over about 4.5 log units. % of DMSO wells, lower = more cell loss; AC50 from the fitted curve, lower = more potent. No active / inactive call. Nalm-6 was screened in two runs. AC50 is listed only for well-fitted inhibitory curves. KB3-1 is a HeLa-derived carcinoma line, Nalm-6 a B-cell precursor leukaemia line.

What was measured:
[1] = tested on: KB3-1; assay: viability (% of DMSO control); higher = more viable cells
Experimental: (§1)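 Eleven-dose screen of the NCATS MIPE 3 library on cells without co-treatment; CellTiter-Glo after 48 h, as % of DMSO wells.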

[2] = tested on: Nalm-6; assay: as above
Experimental: as §1

SMILES	viability ([1]; 0.00078 µM)	viability ([1]; 0.00234 µM)	viability ([1]; 0.00702 µM)	viability ([1]; 0.0211 µM)	viability ([1]; 0.0632 µM)	viability ([1]; 0.19 µM)	viability ([1]; 0.569 µM)	viability ([1]; 1.71 µM)	viability ([1]; 5.12 µM)	viability ([1]; 15.4 µM)	viability ([1]; 46.1 µM)	viability ([2]; run: 1, 0.00078 µM)	viability ([2]; run: 1, 0.00234 µM)	viability ([2]; run: 1, 0.00702 µM)	viability ([2]; run: 1, 0.0211 µM)	viability ([2]; run: 1, 0.0632 µM)	viability ([2]; run: 1, 0.19 µM)	viability ([2]; run: 1, 0.569 µM)	viability ([2]; run: 1, 1.71 µM)	viability ([2]; run: 1, 5.12 µM)	viability ([2]; run: 1, 15.4 µM)	viability ([2]; run: 1, 46.1 µM)	viability ([2]; run: 2, 0.00078 µM)	viability ([2]; run: 2, 0.00234 µM)	viability ([2]; run: 2, 0.00702 µM)	viability ([2]; run: 2, 0.0211 µM)	viability ([2]; run: 2, 0.0632 µM)	viability ([2]; run: 2, 0.19 µM)	viability ([2]; run: 2, 0.569 µM)	viability ([2]; run: 2, 1.71 µM)	viability ([2]; run: 2, 5.12 µM)	viability ([2]; run: 2, 15.4 µM)	viability ([2]; run: 2, 46.1 µM)
CS(=O)(=O)Oc1ccc2c(NC(N)=O)c(C(=O)c3ccc(Cl)cc3Cl)oc2c1 [Lirimilast]	100%	99.7%	107%	104%	108%	103%	108%	102%	103%	105%	93%	86.6%	102%	110%	109%	101%	104%	110%	115%	115%	115%	78.8%	106%	108%	115%	115%	105%	112%	111%	108%	109%	108%	98.1%
O=C(O)c1nn(Cc2ccc(Cl)cc2Cl)c2ccccc12 [Lonidamine]	102%	104%	103%	101%	98.6%	104%	101%	98%	99.5%	99.5%	91.8%	114%	110%	120%	113%	107%	113%	103%	107%	110%	90.5%	86.4%	107%	104%	103%	106%	103%	103%	102%	103%	101%	103%	96.7%
CNC(=O)c1ccc(N2C(=S)N(c3ccc(C#N)c(C(F)(F)F)c3)C(=O)C2(C)C)cc1F [MDV-3100]	96.4%	100%	102%	106%	108%	103%	96.9%	95.8%	98.2%	93.6%	73.9%	66.4%	77.2%	88.3%	97%	99.5%	109%	104%	104%	106%	97.2%	78%	106%	106%	104%	112%	106%	110%	110%	101%	107%	102%	87.8%
C1Cc2[nH]nc(-c3nn[nH]n3)c2C1 [MK-0354]	102%	110%	112%	110%	107%	105%	111%	108%	106%	104%	104%	110%	126%	125%	121%	129%	114%	128%	119%	117%	111%	101%	111%	116%	109%	109%	111%	106%	111%	104%	108%	104%	106%
O=C(O)CCC1CCC(c2cc(F)ccc2F)(S(=O)(=O)c2ccc(Cl)cc2)CC1 (stereo not drawn) [MK-0752]	97.4%	97.3%	93.4%	87.3%	96%	97.6%	56.5%	92.8%	97%	94.5%	96.7%	90.3%	95.5%	104%	100%	102%	105%	101%	104%	108%	99.8%	102%	103%	95.9%	104%	101%	97.5%	98%	91.7%	95.1%	95.3%	96%	92.8%
COc1ccc(CC2SC(=O)NC2=O)cc1C(=O)NCc1ccc(C(F)(F)F)cc1 (stereo not drawn) [MK-767]	105%	106%	104%	105%	102%	105%	106%	98%	104%	105%	82.9%	103%	108%	109%	102%	103%	99%	111%	107%	104%	105%	79.5%	99.8%	94.4%	96.1%	88.5%	98.1%	98.2%	101%	100%	96.6%	102%	79.6%
NC1(CCC1)C2=CC=C(C=C2)C3=C(C=C/4C(=N3)\C=C/N5C(=O)N\N=C45)C6=CC=CC=C6 [MK-2206]	96.1%	97.3%	95.3%	90%	88.6%	88.4%	91%	87.3%	110%	85.8%	-0.434%	90.1%	99.2%	84.9%	69.8%	52.8%	46.2%	46.3%	44.6%	125%	15.8%	-1.08%	99.2%	97.3%	88.4%	71.2%	53.3%	53.7%	53.2%	43.3%	106%	18.6%	-0.0729%
COC1=CC=C(C=C1)C2CC(=N/N2C3=CC=C(C=C3)[S+](N)([O-])=O)\C4=CC=CC=C4 (stereo not drawn) [ML 141]	95.5%	96.9%	101%	96.4%	98.5%	105%	98.3%	103%	98.7%	92.4%	37.9%	67.7%	87.7%	89.3%	96.8%	91%	105%	101%	112%	106%	103%	4.85%	101%	101%	106%	101%	96.1%	111%	94.9%	111%	111%	109%	2.5%
COc1c(Cl)cc2c([nH]c3cnccc32)c1NC(=O)c1cccnc1C [MLN-120B]	99.5%	97.4%	94%	98.3%	98.7%	98.1%	98.2%	97.8%	91.3%	99%	97.6%	92.2%	92.2%	102%	104%	104%	102%	102%	100%	94.3%	99.1%	72.1%	107%	97.5%	104%	108%	101%	106%	102%	102%	105%	106%	93.9%
Cc1nnc(C(C)C)n1C1CC2CCC(C1)N2CC[C@H](NC(=O)C1CCC(F)(F)CC1)c1ccccc1 (stereo partly drawn) [Maraviroc]	103%	94.9%	100%	99.5%	97.1%	105%	104%	105%	103%	104%	103%	94.9%	99.5%	110%	111%	106%	116%	120%	123%	126%	126%	120%	99.5%	99%	107%	109%	105%	101%	108%	104%	108%	83.1%	96.6%
CN(C)C(=N)NC(=N)N [Metformin HCl]	102%	101%	102%	103%	103%	105%	104%	103%	110%	105%	103%	106%	108%	111%	107%	117%	114%	118%	116%	111%	113%	108%	104%	112%	106%	101%	110%	110%	112%	109%	105%	109%	109%
CNCC(O)C(O)C(O)C(O)CO.O=C(O)c1ccc(-c2cc3cccnc3c(-c3ccc4nonc4c3)n2)cc1 [NVP-ABE171]	102%	106%	104%	110%	109%	103%	102%	107%	106%	101%	102%	99.8%	90.9%	103%	115%	115%	112%	120%	115%	120%	111%	89.8%	107%	108%	104%	108%	106%	105%	102%	111%	102%	103%	101%
Oc1nc(-c2ccc(C(F)(F)F)cc2)nc2c1CSCC2 [NVP-XAV-939]	93.7%	97%	95.3%	92.2%	98.9%	100%	93.5%	93.5%	97.8%	96.1%	86.9%	92.9%	96.4%	95.4%	92.8%	105%	106%	102%	108%	93.9%	102%	83.8%	107%	103%	107%	109%	98.7%	107%	99.7%	100%	99.9%	109%	85.8%
CN1C(=O)C(Cc2c[nH]c3ccccc23)NC1=S (stereo not drawn) [Necrostatin-1]	98.1%	102%	104%	97.3%	101%	104%	101%	102%	101%	100%	101%	109%	125%	118%	109%	118%	111%	120%	99.7%	97.8%	101%	98.9%	112%	111%	109%	107%	106%	110%	106%	107%	104%	102%	97.1%
C\C1=C(\C=C(C#N)/C(=O)N1)C2=C[N]3C=CN=C3C=C2 [Olprinone]	108%	108%	105%	109%	103%	107%	106%	109%	103%	110%	108%	111%	129%	119%	121%	113%	124%	119%	120%	126%	123%	117%	110%	111%	112%	105%	108%	109%	109%	108%	109%	109%	100%
COc1ccc2[nH]c([S+]([O-])Cc3ncc(C)c(OC)c3C)nc2c1 (stereo not drawn) [Omeprazole]	103%	96.7%	105%	105%	107%	96.9%	96.4%	98.9%	96.3%	98.3%	92.6%	104%	105%	113%	111%	108%	104%	96.7%	93.7%	97.3%	92.5%	87.8%	103%	98.9%	105%	98.8%	98%	100%	96.8%	86.9%	93.1%	96.4%	85%
